Measured values reported in PubChem BioAssay AID1768 (National Center for Advancing Translational Sciences (NCATS), 2009).
Screen size: about 270,000 compounds; about 620 (0.23%) were called active. Inconclusive means that the source gave no clear call. Such entries were picked first, then a sample of the others. Calls come from the whole dose curve; as a rule, active = well fitted inhibition curve with a large enough effect in the polarisation, with a control signal flat (not every such curve was filed as active); inconclusive = small, poorly fitted or top-dose-only effect, or effect the other way, or a change in a side signal; inactive = no such curve, though single readings can be large or run the other way; the % refers to the polarisation. Potencies of inconclusive entries are doubtful fits and often do not repeat. A note “side channel” means that the fit belongs to a control or component signal, not to the main read-out.
Potency is the fitted concentration of half-maximal effect; tags give direction and shape of the fitted curve or compound fluorescence and quenching.

These molecules were tested against Menin (Homo sapiens) (UniProt O00255) (assay: qHTS Assay for Inhibitors Targeting the Menin-MLL Interaction in MLL Related Leukemias: Competition With Texas Red Labeled MLL-derived Mutant Peptide). Conditions: fluorescence polarization; series mostly up to 61.6 µM.
Sequence of UniProt O00255 (O00255 whole entry, looked up): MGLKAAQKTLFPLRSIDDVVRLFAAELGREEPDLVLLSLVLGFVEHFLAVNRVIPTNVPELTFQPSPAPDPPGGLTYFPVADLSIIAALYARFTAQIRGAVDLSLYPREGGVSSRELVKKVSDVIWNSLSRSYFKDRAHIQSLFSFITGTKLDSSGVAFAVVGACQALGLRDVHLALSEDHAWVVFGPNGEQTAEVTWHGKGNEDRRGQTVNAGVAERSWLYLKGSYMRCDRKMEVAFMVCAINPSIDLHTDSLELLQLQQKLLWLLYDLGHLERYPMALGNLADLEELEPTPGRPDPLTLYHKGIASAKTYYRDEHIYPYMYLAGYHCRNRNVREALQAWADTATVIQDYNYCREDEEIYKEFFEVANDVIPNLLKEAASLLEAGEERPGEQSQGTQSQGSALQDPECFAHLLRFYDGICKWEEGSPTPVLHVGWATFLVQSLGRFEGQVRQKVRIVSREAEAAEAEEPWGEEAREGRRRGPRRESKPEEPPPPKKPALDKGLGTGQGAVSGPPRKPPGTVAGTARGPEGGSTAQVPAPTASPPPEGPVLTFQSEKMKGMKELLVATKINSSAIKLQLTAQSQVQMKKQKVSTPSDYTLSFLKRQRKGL
With O=[N+]([O-])c1ccccc1OCc1nc(-c2cccs2)no1 the Potency was inconclusive: 22.4 µM [quencher, side channel, single point].
CC(C)(C)c1n[nH]c(=S)n(/N=C/c2cccs2)c1=O was tested, and the Potency was “inactive”.
With Cc1ccc(-c2c(C(=O)Nc3ccccc3C)c(C)[nH]c(=S)c2C#N)o1 the Potency was inconclusive: 39.8 µM [quencher, side channel, single point].
In the case of CC(C)Oc1ccc(/C=N/NC(=O)c2ccc(N(Cc3ccccc3)S(C)(=O)=O)cc2)cc1, the Potency is reported as “inactive”.
For COc1cc(OC)cc(-c2cc(N)n(S(=O)(=O)Cc3ccccc3)n2)c1, the Potency was inconclusive: 12.6 µM [quencher, side channel, partial curve].
In the case of O=C(COc1ccc(F)cc1)Nc1nnc(S(=O)(=O)N2CCCC2)s1, the Potency is reported as inconclusive: 39.8 µM [inhibitor, single point].
In the case of COc1ccc(-c2cc(CCCC(=O)NCCc3ccc(OC)cc3OC)no2)cc1, the Potency is reported as inconclusive: 20 µM [fluorescent, side channel, partial curve].
In the case of COc1ccc2[nH]c(=O)c(CN(Cc3cccs3)C(=S)Nc3ccccc3)cc2c1, the Potency is reported as inconclusive: 28.2 µM [inhibitor, single point].
For CCC(C)NC(=O)CSc1nnc(-c2cc(-c3cccs3)nc3ccccc23)o1 (stereo unspecified), the Potency was inconclusive: 11.2 µM [quencher, side channel, partial curve].
In the case of COc1ccc(C(=O)COC(=O)/C=C/c2ccccc2)cc1, the Potency is reported as inconclusive: 25.1 µM [fluorescent, side channel, single point].
CSc1nc2ccc3nc(NC(=O)c4ccccc4)sc3c2s1 was tested, and the Potency was inconclusive: 7.08 µM [quencher, side channel, partial curve].
In the case of Cc1ccc2cc3cc(C(=O)N4CCCCCC4)oc3nc2c1, the Potency is reported as inconclusive: 39.8 µM [inhibitor, single point].
With Clc1nssc1=Nc1ccccc1 the Potency was inconclusive: 22.4 µM [inhibitor, single point].
With COc1cccc(/C=C2\SC(=S)N(NS(=O)(=O)c3ccccc3)C2=O)c1OC the Potency was inconclusive: 31.6 µM [quencher, side channel, single point].
Cc1onc(-c2ccccc2)c1C(=O)NNC(=S)NC(=O)/C=C/c1cccs1 was tested, and the Potency was inconclusive: 39.8 µM [quencher, side channel, single point].
In the case of CCOC(=O)c1ccc(NC(=O)CSc2nnc(NC(=O)c3ccc(S(=O)(=O)N4CCOCC4)cc3)s2)cc1, the Potency is reported as inconclusive: 28.2 µM [quencher, side channel, partial curve].
